“And” between values parts separate entries of the source, which are not always exact repeats. Identical values can stand only once. Among all 48,000 compounds or so, about 1,200 (2.5%) were called active. Another 2% or so got no clear call; they are omitted.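 Rule for the calls: active = activation of at least 60% and not above a set upper limit (about 1 call in 100 departs from these limits); inconclusive = activation of 40% to 60%, or above that upper limit; inactive = activation under 40%.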 This is one part of the list. A structure can be active in one record and inactive in another.
Molecular target: Probable G-protein coupled receptor 32 (Homo sapiens) (UniProt O75388)
Test: qHTS for Agonists of Human Resolvin D1 Receptor DRV1; note: 0% is about no effect
Details: CHO-K1 GPR32 beta-arrestin PathHunter luminescence, 90 min; at 76.9 µM; stronger effect = higher value; zero percent set by DMSO-only wells
How it was run: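 Readings come from a cell-based beta-arrestin complementation format: CHO-K1 GPR32 stable cells (2,500/well) treated 90 min with compounds, then beta-Gal substrate added for 1 h before chemiluminescence imaging.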

Chain of UniProt O75388 (O75388 whole entry, looked up): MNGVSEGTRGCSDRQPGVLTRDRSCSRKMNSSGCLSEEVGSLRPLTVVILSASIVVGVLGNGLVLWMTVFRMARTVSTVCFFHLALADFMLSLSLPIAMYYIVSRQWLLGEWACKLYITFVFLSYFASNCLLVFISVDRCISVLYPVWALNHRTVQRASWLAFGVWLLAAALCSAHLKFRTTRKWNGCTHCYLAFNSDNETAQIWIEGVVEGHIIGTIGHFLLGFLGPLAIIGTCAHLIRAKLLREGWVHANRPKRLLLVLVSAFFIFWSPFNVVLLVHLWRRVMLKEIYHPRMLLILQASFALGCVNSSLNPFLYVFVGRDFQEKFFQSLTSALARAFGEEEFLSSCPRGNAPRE

activation, 104% (active) and -3.61% (inactive):
CNCCC(Oc1ccc(C(F)(F)F)cc1)c1ccccc1 (stereo not drawn)

activation, active:
Cc1oc2ccc(O)c(CN3CCCCC3)c2c1C(=O)Nc1cccc(C(F)(F)F)c1 106%
Cc1nn(C)c2c1c(C(F)(F)F)cc(=O)n2CC(=O)N1CCCCC1C (stereo not drawn) 79.9%
CCC1Oc2ccc(C)cc2N(CC(=O)NCc2ccc(OC)cc2)C1=O (stereo not drawn) 64.4%
COc1ccc2nc(NC(=O)Nc3ccccc3)sc2c1 101%
COc1ccc(-n2nc3c(N4CCCC(C(=O)NCc5ccc(C)cc5)C4)nnc(C)c3c2C)cc1 (stereo not drawn) 111%

activation, inactive:
C=CCc1cccc2cc(C(=O)NCCc3c(C)[nH]c4c(C)cccc34)c(=O)oc12 37.4%
CNc1ccc(-c2nc(-c3ccco3)no2)cc1[N+](=O)[O-] -6.09%
Cc1ccccc1NC(=O)c1ccc2c(O)c(S(=O)(=O)c3ccccc3)c(=O)[nH]c2c1 -9.94%
CCOC(=O)N1CCC(NC(=O)c2cnn(-c3ccc(F)cc3F)c2C2CCN(C(=O)OC(C)(C)C)CC2)CC1 -15.8%
O=C(NCC(c1ccc2c(c1)OCO2)N1CCOCC1)C(=O)Nc1ccc(F)cc1F (stereo not drawn) -9.85%
COc1cc2[nH]c(=O)n(Cc3ccc(C(=O)N4CCN(c5cc(Cl)ccc5C)CC4)cc3)c(=O)c2cc1OC -3.9%
COc1ccc(N(Cc2cccs2)C(=O)c2ccc(C(C)(C)C)cc2)cc1 -35.6%
CC(=O)Nc1ccc(CC(=O)O)cc1 -3.73%
O=C(Nc1cccc(Cl)c1)N1CCC(CN2CCOCC2)CC1 3.84%
O=C(CN1C(=O)CC(c2ccco2)Sc2ccccc21)Nc1ccc(C(F)(F)F)cc1 (stereo not drawn) -6.71%
O=C(Cn1cnc2c(oc3ccccc32)c1=O)Nc1ccc(OC(F)(F)F)cc1 7.84%
Cc1ccc(CNC(=O)c2ccc3c(c2)N(Cc2ccccc2)C(=O)c2ccccc2S3(=O)=O)cc1 -25.4%
COc1ccccc1CNC(=O)Cc1csc2nc(-c3ccccc3)cn12 -11.7%
CC(C)(C)c1ccc(S(=O)(=O)c2cn(CC(=O)Nc3ccccc3)c3ccccc3c2=O)cc1 -2.4%
Cc1cccc(CCNC(=O)c2cnc3c(C)cccn3c2=O)c1 -7.28%
Cc1ccc2c(c1)N(C(=O)C1CCN(S(=O)(=O)c3c(C)noc3/C=C/c3ccccc3F)CC1)CCO2 -25.3%
CCn1c(SCc2ccc(F)cc2Cl)nnc1-c1nonc1NC(C)=O 5.8%
CCOC(=O)c1ccc(NC(=O)c2c(C)nn(-c3ccc(F)cc3)c2-n2cccc2)cc1 -0.666%
O=C(CCC1N=C2c3ccccc3N=C(SCc3ccccc3F)N2C1=O)NCCc1ccccc1 (stereo not drawn) -22.2%
Cc1cc(C)c(NC(=O)Cn2ccn(-c3cccc(Cl)c3)c(=O)c2=O)c(C)c1 -4.78%
COC(=O)C1CCN(CC(=O)Nc2cc(C)c3c(=O)oc4ccccc4c3n2)CC1 17.6%
COc1ccc(N(C(=O)c2cccc(C)c2)S(=O)(=O)c2ccc(C)cc2)cc1 -5.4%
O=C(Nc1nnc(S(=O)(=O)N2CCCc3ccccc32)s1)c1cccc(F)c1 45.3%
Fc1ccc(-n2ncc3c(N4CCC(Cc5ccccc5)CC4)ncnc32)cc1 -6.38%
CCOc1ccccc1CNC(=O)c1ccc(NC(=O)N2CCSc3ncccc32)cc1 4.37%
COc1ccc(CNC(=O)CCNS(=O)(=O)c2cccc3nsnc23)cc1 8.01%
COc1ccc2c(Sc3ccccc3)c(C(=O)NCCCN3CCCCC3)[nH]c2c1 -15.6%
COc1ccc(/C=C/C(=O)Nc2nc3n(n2)C(c2ccccc2)C=C(c2ccc(Cl)cc2)N3)cc1 (stereo not drawn) -10.3%
COc1ccc(OC)c(CNC(=O)Cn2nc(C)c3nn(-c4ccc(Cl)cc4)c(C)c3c2=O)c1 -16.2%
COc1ccc2oc(=O)c(-c3cn4c(n3)sc3cc(OC)ccc34)cc2c1 -12.3%
CCc1ccccc1NC(=O)Nc1nnc(N(C)Cc2ccccc2)s1 -20.8%
COc1ccc(NC(=O)c2cc(S(=O)(=O)N3CCCCCC3)cn2C)cc1Cl -4.47%
Clc1ccc(N2CCN(c3ncnc4c3cnn4-c3ccccc3)CC2)cc1Cl 4.04%
Cc1nc2n(c(=O)c1CCN1CCC(c3noc4cc(F)ccc34)CC1)CCCC2 2.19%
CCc1ccccc1N(C)C(=O)c1cn(-c2cccc(OC)c2)c(=O)c2ccccc12 -21.6%
CCc1ccc(NC(=O)Cn2nnc(C(=O)NCc3ccc(C)cc3)c2N)cc1 -1.7%
O=C(Nc1ccc(F)cc1F)C1CCN(S(=O)(=O)c2ccc3[nH]c(=O)ccc3c2)CC1 15.6%
O=C(CCc1nc2cccnc2n1-c1ccccc1)Nc1ccc(Cl)c(Cl)c1 27.9%
CC1(C(=O)NC2CCCCC2)Cc2ccccc2C(=O)N1Cc1ccccc1Cl (stereo not drawn) -14.8%
COc1cc(NC(=O)CCc2nc3cccnc3n2Cc2cccs2)cc(OC)c1OC 5.4%
CCc1ccc(OCc2nc(-c3ccc(OC)c(OC)c3)no2)c(Br)c1 -7.44%
CCOc1ccc(C(=O)NCC(c2ccc3c(c2)OCO3)N2CCOCC2)cc1 (stereo not drawn) -6.11%
CN(C)c1ccc(C2C=C(c3ccccc3)Nc3nnnn32)cc1 (stereo not drawn) -19.6%
CC(=O)c1ccc(N2C(=O)N(Cc3ccccc3C#N)c3ccccc3S2(=O)=O)cc1 -6.48%
COc1cc(-c2noc(-c3ccc(NCc4ccco4)c([N+](=O)[O-])c3)n2)cc(OC)c1OC -25.7%
Cc1c(C(=O)Nc2ccc(F)c(Cl)c2)oc2ccc(S(=O)(=O)N(C)C3CCCCC3)cc12 -13.9%
Cc1ccc(-n2ncc(C(=O)Nc3ccc4c(c3)OCO4)c2C2CCN(C(=O)OC(C)(C)C)CC2)c(C)c1 -43.9%
Cc1cn2c(=O)cc(COc3ccc(NC(=O)c4ccccc4C)cc3)nc2s1 5.57%
CCOC(=O)c1nc(Nc2ccccc2OC)c2ccccc2n1 -3.22%
CCCOc1ccc(-c2nc(N3CCCCC3)c3ccccc3n2)cc1 5.54%
CCCCN(CC)C(=O)c1cc2c(=O)n3ccccc3nc2n1C -9.64%
CCc1nn(CCCC(=O)N2CCN(c3cc(Cl)ccc3C)CC2)c(=O)c2cc3occc3n12 -14.2%
COc1ccc(CC(=O)NC2CC(=O)N(c3cccc(F)c3)C2)cc1OC (stereo not drawn) 2.68%
CCOC(=O)c1c(C)n(S(=O)(=O)c2ccc(C)cc2C)c2ccc(NS(=O)(=O)c3ccc(C)cc3C)cc12 -21%
COc1ccccc1Nc1sc(C(=O)c2ccc3c(c2)OCO3)c(N)c1S(=O)(=O)c1ccccc1 8%
Cc1ccc(C2=Nc3ccccc3N(CC(=O)Nc3ccccc3F)C(=O)C2)cc1C -15.5%
CCCCN1C(=O)c2[nH]nc(-c3ccccc3O)c2C1c1ccc(C(C)(C)C)cc1 (stereo not drawn) 0.574%
O=c1oc2ccccc2cc1-c1nnc(Nc2ccc(Cl)cc2Cl)s1 -0.345%
CCN(CC)CCCNC(=O)Cc1ccc(NC(=O)N2CCCCc3ccccc32)cc1 -24.4%
O=C(Nc1cccc(Cl)c1)c1ccc2nc(CCc3ccccc3)oc2c1 2.6%
CCCn1c2ccccc2c2cnn(CC(=O)NCc3ccccc3Cl)c(=O)c21 34.4%
Cc1nc(-c2ccccc2)sc1-c1ccc(SCC(=O)Nc2cccc(C(F)(F)F)c2)nn1 -5.27%
COc1cccc(C2CC(=O)Nc3cc4c(cc32)OCO4)c1OC(C)C (stereo not drawn) 23.5%
CCC(=O)N1CCc2cc(Br)cc(S(=O)(=O)N3CCC(C(=O)Nc4ccccc4CC)CC3)c21 5.48%
CC(=O)NC1CC(=O)N(c2ccc3c(c2)OCCO3)C1 (stereo not drawn) 0.759%
Cc1ccc(-c2nc3cc(Cl)ccc3o2)cc1NC(=O)c1cc([N+](=O)[O-])ccc1N1CCOCC1 -1.38%
CC(C)Oc1ccc(CNC(=O)C2CCN(c3nc4ccccc4nc3C(F)(F)F)CC2)cc1 6.48%
COc1cc(OC)c(NC(=O)C2CCN(C(=O)c3sc4nc[nH]c(=O)c4c3C)CC2)cc1Cl 0.0329%
COc1ccc(NC(=O)c2cc3nc(-c4ccc(Cl)c(Cl)c4)cc(C(F)(F)F)n3n2)c(OC)c1 -12.4%
CCCNC(=O)c1cnn2c(C)c(Cc3c(C)cc(C)cc3C)c(C)nc12 -2.54%
CCOc1ccccc1NC(=O)N1CCC(n2c(C)nc3cccnc32)CC1 -1.59%
Cc1sc2ncn(CC(=O)Nc3ccc(F)cc3F)c(=O)c2c1S(=O)(=O)N1CCC(C)CC1 0.387%
COc1ccc(C(=O)NC2CC(=O)N(c3ccc4c(c3)OCCO4)C2)cc1 (stereo not drawn) 16%
COc1ccc(CNC(=O)CCc2cn(C)c3ccccc23)cc1 -20.9%
Cc1c(-c2nnc(SCC(=O)Nc3ccccc3F)o2)nnn1-c1ccc(F)cc1 -13.8%
COc1cccc(N2CCN(S(=O)(=O)c3cn(C)c(C)n3)CC2)c1 25.3%
Cc1ccc(CCNC(c2ccc(F)cc2)c2nnc(-c3ccccc3Cl)o2)cc1 (stereo not drawn) -13.2%

Reference: PubChem BioAssay AID1346428 (National Center for Advancing Translational Sciences (NCATS), 2018)
